Our source for the binding signal values is publication PMC12820563, “FoxP3 forms a head-to-head dimer in vivo and stabilizes its multimerization on adjacent microsatellites”.

This is one part of the list.

This assay concerns the target T1, MBP-FoxP1dN (Mus musculus, UniProt P58462 326-579).
T1 sequence: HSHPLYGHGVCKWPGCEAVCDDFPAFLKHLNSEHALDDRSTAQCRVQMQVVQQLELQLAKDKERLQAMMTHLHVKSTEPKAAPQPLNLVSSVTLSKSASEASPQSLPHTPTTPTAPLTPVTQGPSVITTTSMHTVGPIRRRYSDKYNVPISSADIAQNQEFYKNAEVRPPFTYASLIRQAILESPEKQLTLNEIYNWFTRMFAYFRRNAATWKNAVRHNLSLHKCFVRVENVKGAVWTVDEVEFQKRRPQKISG
The assay can be described thus: PD-seq (MBP pull-down with sequencing); 20 mM Tris-HCl pH 7.5, 100 mM NaCl, 1.5 mM MgCl2, 0.4 uM protein, 0.1 uM dsDNA library, 30 min, room temperature, amylose pull-down; high values mean tight binding. The conditions noted are these: protein: recombinant; tags: His6-MBP; chain copies: 2; dsDNA, one strand shown. Summed up: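 A fragment of mouse FoxP3 or FoxP1 without its N-terminus, carrying a His6-MBP tag and produced in E. coli, was combined at 0.4 µM with a 0.1 µM degenerate double-stranded DNA library filled in with Klenow. The mixture sat for 30 min at room temperature in Tris pH 7.5 buffer containing NaCl and MgCl2. Protein–DNA complexes were captured on amylose resin, washed three times, and the DNA was freed with proteinase K, barcoded by PCR and sequenced on Illumina. Binding is expressed as reads-per-million enrichment of pull-down over input, with replicates pooled.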
As for “GATGATTGTTCTCCCAGCTGATGAATTATGCCAATCGAGTAAACAAATTTTCCTAATCTTTCTGTTCAAGCGCCATCTAC”, the binding signal was 1.13 RPM ratio (pull-down/input).
On to “GATGATTGTTCTCCCAGCTGATGAATTCACCTATTCGAGTAAACAAATTTTCCTAATCTTTCTGTTCAAGCGCCATCTAC”, for which the binding signal is 0.929 RPM ratio (pull-down/input).
On to “GATGATTGTTCTCCCAGCTGATGAATTCTGAATATCGAGTAAACAAATTTTCCTAATCTTTCTGTTCAAGCGCCATCTAC”, for which the binding signal was 0.974 RPM ratio (pull-down/input).
As for “GATGATTGTTCTCCCAGCTGATGAATTACTGAAATCGAGTAAACAAATTTTCCTAATCTTTCTGTTCAAGCGCCATCTAC”, the binding signal is 1.14 RPM ratio (pull-down/input).
Next, “GATGATTGTTCTCCCAGCTGATGAATTTGATTACTCGAGTAAACAAATTTTCCTAATCTTTCTGTTCAAGCGCCATCTAC”: 1.56 RPM ratio (pull-down/input); “GATGATTGTTCTCCCAGCTGATGAATTTGCCTTCTCGAGTAAACAAATTTTCCTAATCTTTCTGTTCAAGCGCCATCTAC”: 0.966 RPM ratio (pull-down/input); “GATGATTGTTCTCCCAGCTGATGAATTTCGGCTATCGAGTAAACAAATTTTCCTAATCTTTCTGTTCAAGCGCCATCTAC”: 0.91 RPM ratio (pull-down/input).
Next, “GATGATTGTTCTCCCAGCTGATGAATTACATAGGTCGAGTAAACAAATTTTCCTAATCTTTCTGTTCAAGCGCCATCTAC”: 1.09 RPM ratio (pull-down/input); “GATGATTGTTCTCCCAGCTGATGAATTCTCGGGGTCGAGTAAACAAATTTTCCTAATCTTTCTGTTCAAGCGCCATCTAC”: 0.778 RPM ratio (pull-down/input); “GATGATTGTTCTCCCAGCTGATGAATTGTGCACGTCGAGTAAACAAATTTTCCTAATCTTTCTGTTCAAGCGCCATCTAC”: 1.05 RPM ratio (pull-down/input).
Next, “GATGATTGTTCTCCCAGCTGATGAATTGCGATTATCGAGTAAACAAATTTTCCTAATCTTTCTGTTCAAGCGCCATCTAC”: 1.22 RPM ratio (pull-down/input); “GATGATTGTTCTCCCAGCTGATGAATTAGCCGCGTCGAGTAAACAAATTTTCCTAATCTTTCTGTTCAAGCGCCATCTAC”: 0.832 RPM ratio (pull-down/input); “GATGATTGTTCTCCCAGCTGATGAATTCATGGGGTCGAGTAAACAAATTTTCCTAATCTTTCTGTTCAAGCGCCATCTAC”: 0.836 RPM ratio (pull-down/input).
For “GATGATTGTTCTCCCAGCTGATGAATTGATCTTTTCGAGTAAACAAATTTTCCTAATCTTTCTGTTCAAGCGCCATCTAC”, the binding signal was 1.14 RPM ratio (pull-down/input).
To “GATGATTGTTCTCCCAGCTGATGAATTTAGTCTCTCGAGTAAACAAATTTTCCTAATCTTTCTGTTCAAGCGCCATCTAC” belongs 0.934 RPM ratio (pull-down/input); to “GATGATTGTTCTCCCAGCTGATGAATTTCAGCCATCGAGTAAACAAATTTTCCTAATCTTTCTGTTCAAGCGCCATCTAC”, 0.852 RPM ratio (pull-down/input); to “GATGATTGTTCTCCCAGCTGATGAATTGTTAGCCTCGAGTAAACAAATTTTCCTAATCTTTCTGTTCAAGCGCCATCTAC”, 1.11 RPM ratio (pull-down/input).
Turning to “GATGATTGTTCTCCCAGCTGATGAATTGCCCGGGTCGAGTAAACAAATTTTCCTAATCTTTCTGTTCAAGCGCCATCTAC”, the binding signal was 0.816 RPM ratio (pull-down/input).
As for “GATGATTGTTCTCCCAGCTGATGAATTGTGGGCCTCGAGTAAACAAATTTTCCTAATCTTTCTGTTCAAGCGCCATCTAC”, the binding signal was 0.967 RPM ratio (pull-down/input).
For “GATGATTGTTCTCCCAGCTGATGAATTGCACTGCTCGAGTAAACAAATTTTCCTAATCTTTCTGTTCAAGCGCCATCTAC”, the binding signal was 1.06 RPM ratio (pull-down/input).
To “GATGATTGTTCTCCCAGCTGATGAATTCCGTCAGTCGAGTAAACAAATTTTCCTAATCTTTCTGTTCAAGCGCCATCTAC” belongs 0.812 RPM ratio (pull-down/input).
Next, “GATGATTGTTCTCCCAGCTGATGAATTAATCACCTCGAGTAAACAAATTTTCCTAATCTTTCTGTTCAAGCGCCATCTAC”: 0.973 RPM ratio (pull-down/input); “GATGATTGTTCTCCCAGCTGATGAATTACAACGGTCGAGTAAACAAATTTTCCTAATCTTTCTGTTCAAGCGCCATCTAC”: 1.17 RPM ratio (pull-down/input).
Next, “GATGATTGTTCTCCCAGCTGATGAATTACCTTTTTCGAGTAAACAAATTTTCCTAATCTTTCTGTTCAAGCGCCATCTAC”: 1.11 RPM ratio (pull-down/input).
For the sequence “GATGATTGTTCTCCCAGCTGATGAATTTTTGAGTTCGAGTAAACAAATTTTCCTAATCTTTCTGTTCAAGCGCCATCTAC”, the binding signal is 0.92 RPM ratio (pull-down/input).
To “GATGATTGTTCTCCCAGCTGATGAATTTGTCGCTTCGAGTAAACAAATTTTCCTAATCTTTCTGTTCAAGCGCCATCTAC” belongs 1.08 RPM ratio (pull-down/input); to “GATGATTGTTCTCCCAGCTGATGAATTGATATGGTCGAGTAAACAAATTTTCCTAATCTTTCTGTTCAAGCGCCATCTAC”, 1.06 RPM ratio (pull-down/input); to “GATGATTGTTCTCCCAGCTGATGAATTGTGTCCGTCGAGTAAACAAATTTTCCTAATCTTTCTGTTCAAGCGCCATCTAC”, 0.991 RPM ratio (pull-down/input).
Next, “GATGATTGTTCTCCCAGCTGATGAATTAATCAATTCGAGTAAACAAATTTTCCTAATCTTTCTGTTCAAGCGCCATCTAC”: 1.05 RPM ratio (pull-down/input); “GATGATTGTTCTCCCAGCTGATGAATTAAACATGTCGAGTAAACAAATTTTCCTAATCTTTCTGTTCAAGCGCCATCTAC”: 1.32 RPM ratio (pull-down/input).
To “GATGATTGTTCTCCCAGCTGATGAATTAACCCGATCGAGTAAACAAATTTTCCTAATCTTTCTGTTCAAGCGCCATCTAC” belongs 0.776 RPM ratio (pull-down/input); to “GATGATTGTTCTCCCAGCTGATGAATTAATCTAGTCGAGTAAACAAATTTTCCTAATCTTTCTGTTCAAGCGCCATCTAC”, 0.881 RPM ratio (pull-down/input).
